Source: patent US20250101135A1 (Hoffmann-La Roche, published 2025)
Where two headings read alike, the source gives them in different places. Blank lines part the entries; values can stand above or below the binder they belong to.

Key:
human NA3B3A2-avi-His [1] = molecular target: T1, human NA3B3A2-avi-His (human); experiment: SPR (Biacore T200), simultaneous binding: construct held on immobilized human 4-1BB Fc(kih), human NA3B3A2-avi-His injected as analyte 2 at 500 nM
T1 construct: hybrid antigen with avi and His tags; also called hu NA3B3A2
T1 chain: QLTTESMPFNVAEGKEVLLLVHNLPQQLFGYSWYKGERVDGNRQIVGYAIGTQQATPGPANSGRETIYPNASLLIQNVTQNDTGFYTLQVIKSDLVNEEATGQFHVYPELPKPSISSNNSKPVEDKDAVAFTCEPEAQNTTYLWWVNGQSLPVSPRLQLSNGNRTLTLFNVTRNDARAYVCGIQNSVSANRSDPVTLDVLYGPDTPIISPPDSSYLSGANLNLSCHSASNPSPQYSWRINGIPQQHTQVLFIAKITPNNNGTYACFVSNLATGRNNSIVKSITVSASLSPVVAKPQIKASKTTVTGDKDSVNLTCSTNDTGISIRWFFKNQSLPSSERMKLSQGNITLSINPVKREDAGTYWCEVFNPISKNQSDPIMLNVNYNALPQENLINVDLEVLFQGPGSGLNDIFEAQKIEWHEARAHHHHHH

[2] = molecular target: T2, human 4-1BB (CD137) on cells (human, UniProt Q07011 24-255); experiment: cell-based or functional assay
[3] = molecular target: T2, human 4-1BB (CD137) on cells; experiment: flow cytometry on activated human PBMC, 4-1BB+ CD8+ T cells
[4] = molecular target: T2, human 4-1BB (CD137) on cells; experiment: flow cytometry on activated human PBMC, 4-1BB+ CD4+ T cells
human NA3B3A2-avi-His [5] = molecular target: T1, human NA3B3A2-avi-His; experiment: SPR (Biacore T200), simultaneous binding: construct held on immobilized human 4-1BB Fc(kih), human NA3B3A2-avi-His injected as analyte 2 at 500 nM
human NA3B3A2-avi-His [6] = molecular target: T1, human NA3B3A2-avi-His; experiment: as above

binding result (human NA3B3A2-avi-His [1]): binds
EC50 [nM] of NF-kB-luciferase activation, human 4-1BB HeLa reporter cells with MKN-45 cells [2]: 0.34 nM
EC50 [nM] of NF-kB-luciferase activation, human 4-1BB HeLa reporter cells, no tumor cells [2]: 3.1 nM
EC50 [3]: 130 pM
EC50 [4]: 350 pM
B1: monovalent CEA(T84.66-LCHA) targeted split trimeric 4-1BB ligand (71-248) Fc (kih) fusion containing CH-CL cross with charged residues (construct 5.4) (Fc fusion)
chain 1: REGPELSPDDPAGLLDLRQGMFAQLVAQNVLLIDGPLSWYSDPGLAGVSLTGGLSYKEDTKELVVAKAGVYYVFFQLELRRVVAGEGSGSVSLALHLQPLRSAAGAAALALTVDLPPASSEARNSAFGFQGRLLHLSAGQRLGVHLHTEARARHAWQLTQGATVLGLFRVTPEIPAGLGGGGSGGGGSREGPELSPDDPAGLLDLRQGMFAQLVAQNVLLIDGPLSWYSDPGLAGVSLTGGLSYKEDTKELVVAKAGVYYVFFQLELRRVVAGEGSGSVSLALHLQPLRSAAGAAALALTVDLPPASSEARNSAFGFQGRLLHLSAGQRLGVHLHTEARARHAWQLTQGATVLGLFRVTPEIPAGLGGGGSGGGGSRTVAAPSVFIFPPSDRKLKSGTASVVCLLNNFYPREAKVQWKVDNALQSGNSQESVTEQDSKDSTYSLSSTLTLSKADYEKHKVYACEVTHQGLSSPVTKSFNRGE[no letters for human IgG1 Fc with changes]
chain 2: REGPELSPDDPAGLLDLRQGMFAQLVAQNVLLIDGPLSWYSDPGLAGVSLTGGLSYKEDTKELVVAKAGVYYVFFQLELRRVVAGEGSGSVSLALHLQPLRSAAGAAALALTVDLPPASSEARNSAFGFQGRLLHLSAGQRLGVHLHTEARARHAWQLTQGATVLGLFRVTPEIPAGLGGGGSGGGGSASTKGPSVFPLAPSSKSTSGGTAALGCLVEDYFPEPVTVSWNSGALTSGVHTFPAVLQSSGLYSLSSVVTVPSSSLGTQTYICNVNHKPSNTKVDEKVEPKSC
heavy: QVQLVQSGAEVKKPGSSVKVSCKASGFNIKDTYMHWVRQAPGQGLEWMGRIDPANGNSKYVPKFQGRVTITADTSTSTAYMELSSLRSEDTAVYYCAPFGYYVSDYAMAYWGQGTLVTVSSASTKGPSVFPLAPSSKSTSGGTAALGCLVKDYFPEPVTVSWNSGALTSGVHTFPAVLQSSGLYSLSSVVTVPSSSLGTQTYICNVNHKPSNTKVDKKVEPKSCDKTHTCPPCPAPEAAGGPSVFLFPPKPKDTLMISRTPEVTCVVVDVSHEDPEVKFNWYVDGVEVHNAKTKPREEQYNSTYRVVSVLTVLHQDWLNGKEYKCKVSNKALGAPIEKTISKAKGQPREPQVCTLPPSRDELTKNQVSLSCAVKGFYPSDIAVEWESNGQPENNYKTTPPVLDSDGSFFLVSKLTVDKSRWQQGNVFSCSVMHEALHNHYTQKSLSLSPGK
light: EIVLTQSPATLSLSPGERATLSCRAGESVDIFGVGFLHWYQQKPGQAPRLLIYRASNRATGIPARFSGSGSGTDFTLTISSLEPEDFAVYYCQQTNEDPYTFGQGTKLEIKRTVAAPSVFIFPPSDEQLKSGTASVVCLLNNFYPREAKVQWKVDNALQSGNSQESVTEQDSKDSTYSLSSTLTLSKADYEKHKVYACEVTHQGLSSPVTKSFNRGEC

binding result (human NA3B3A2-avi-His [5]): binds
EC50 [nM] of NF-kB-luciferase activation, human 4-1BB HeLa reporter cells with MKN-45 cells [2]: 0.21 nM
EC50 [nM] of NF-kB-luciferase activation, human 4-1BB HeLa reporter cells, no tumor cells [2]: 2.05 nM
EC50 [3]: 60 pM
EC50 [4]: 340 pM
B2: bivalent CEA(T84.66-LCHA) targeted split trimeric 4-1BB ligand (71-248) Fc (kih) fusion (construct 5.6) (Fc fusion)
heavy 1: QVQLVQSGAEVKKPGSSVKVSCKASGFNIKDTYMHWVRQAPGQGLEWMGRIDPANGNSKYVPKFQGRVTITADTSTSTAYMELSSLRSEDTAVYYCAPFGYYVSDYAMAYWGQGTLVTVSSASTKGPSVFPLAPSSKSTSGGTAALGCLVKDYFPEPVTVSWNSGALTSGVHTFPAVLQSSGLYSLSSVVTVPSSSLGTQTYICNVNHKPSNTKVDKKVEPKSCDKTHTCPPCPAPEAAGGPSVFLFPPKPKDTLMISRTPEVTCVVVDVSHEDPEVKFNWYVDGVEVHNAKTKPREEQYNSTYRVVSVLTVLHQDWLNGKEYKCKVSNKALGAPIEKTISKAKGQPREPQVCTLPPSRDELTKNQVSLSCAVKGFYPSDIAVEWESNGQPENNYKTTPPVLDSDGSFFLVSKLTVDKSRWQQGNVFSCSVMHEALHNHYTQKSLSLSPGGGGGSGGGGSREGPELSPDDPAGLLDLRQGMFAQLVAQNVLLIDGPLSWYSDPGLAGVSLTGGLSYKEDTKELVVAKAGVYYVFFQLELRRVVAGEGSGSVSLALHLQPLRSAAGAAALALTVDLPPASSEARNSAFGFQGRLLHLSAGQRLGVHLHTEARARHAWQLTQGATVLGLFRVTPEIPAGLGGGGSGGGGSREGPELSPDDPAGLLDLRQGMFAQLVAQNVLLIDGPLSWYSDPGLAGVSLTGGLSYKEDTKELVVAKAGVYYVFFQLELRRVVAGEGSGSVSLALHLQPLRSAAGAAALALTVDLPPASSEARNSAFGFQGRLLHLSAGQRLGVHLHTEARARHAWQLTQGATVLGLFRVTPEIPAGL
heavy 2: QVQLVQSGAEVKKPGSSVKVSCKASGFNIKDTYMHWVRQAPGQGLEWMGRIDPANGNSKYVPKFQGRVTITADTSTSTAYMELSSLRSEDTAVYYCAPFGYYVSDYAMAYWGQGTLVTVSSASTKGPSVFPLAPSSKSTSGGTAALGCLVKDYFPEPVTVSWNSGALTSGVHTFPAVLQSSGLYSLSSVVTVPSSSLGTQTYICNVNHKPSNTKVDKKV[no letters for human IgG1 Fc with changes]GGGGSGGGGSREGPELSPDDPAGLLDLRQGMFAQLVAQNVLLIDGPLSWYSDPGLAGVSLTGGLSYKEDTKELVVAKAGVYYVFFQLELRRVVAGEGSGSVSLALHLQPLRSAAGAAALALTVDLPPASSEARNSAFGFQGRLLHLSAGQRLGVHLHTEARARHAWQLTQGATVLGLFRVTPEIPAGL
light: B1 light

EC50 [nM] of NF-kB-luciferase activation, human 4-1BB HeLa reporter cells with MKN-45 cells [2]: 0.45 nM
EC50 [nM] of NF-kB-luciferase activation, human 4-1BB HeLa reporter cells, no tumor cells [2]: 1.52 nM
binding result (human NA3B3A2-avi-His [6]): binds
EC50 [3]: 170 pM
EC50 [4]: 380 pM
B3: bivalent CEA(T84.66) targeted split trimeric 4-1BB ligand (71-254) Fc (kih) PGLALA fusion (construct 5.8) (Fc fusion)
heavy 1: EVQLQQSGAELVEPGASVKLSCTASGFNIKDTYMHWVKQRPEQGLEWIGRIDPANGNSKYVPKFQGKATITADTSSNTAYLQLTSLTSEDTAVYYCAPFGYYVSDYAMAYWGQGTSVTVSSASTKGPSVFPLAPSSKSTSGGTAALGCLVKDYFPEPVTVSWNSGALTSGVHTFPAVLQSSGLYSLSSVVTVPSSSLGTQTYICNVNHKPSNTKVDKKVEPKSCDKTHTCPPCPAPEAAGGPSVFLFPPKPKDTLMISRTPEVTCVVVDVSHEDPEVKFNWYVDGVEVHNAKTKPREEQYNSTYRVVSVLTVLHQDWLNGKEYKCKVSNKALGAPIEKTISKAKGQPREPQVCTLPPSRDELTKNQVSLSCAVKGFYPSDIAVEWESNGQPENNYKTTPPVLDSDGSFFLVSKLTVDKSRWQQGNVFSCSVMHEALHNHYTQKSLSLSPGGGGGSGGGGSREGPELSPDDPAGLLDLRQGMFAQLVAQNVLLIDGPLSWYSDPGLAGVSLTGGLSYKEDTKELVVAKAGVYYVFFQLELRRVVAGEGSGSVSLALHLQPLRSAAGAAALALTVDLPPASSEARNSAFGFQGRLLHLSAGQRLGVHLHTEARARHAWQLTQGATVLGLFRVTPEIPAGLPSPRSEGGGGSGGGGSREGPELSPDDPAGLLDLRQGMFAQLVAQNVLLIDGPLSWYSDPGLAGVSLTGGLSYKEDTKELVVAKAGVYYVFFQLELRRVVAGEGSGSVSLALHLQPLRSAAGAAALALTVDLPPASSEARNSAFGFQGRLLHLSAGQRLGVHLHTEARARHAWQLTQGATVLGLFRVTPEIPAGLPSPRSE
heavy 2: EVQLQQSGAELVEPGASVKLSCTASGFNIKDTYMHWVKQRPEQGLEWIGRIDPANGNSKYVPKFQGKATITADTSSNTAYLQLTSLTSEDTAVYYCAPFGYYVSDYAMAYWGQGTSVTVSSASTKGPSVFPLAPSSKSTSGGTAALGCLVKDYFPEPVTVSWNSGALTSGVHTFPAVLQSSGLYSLSSVVTVPSSSLGTQTYICNVNHKPSNTKVDKKV[no letters for human IgG1 Fc with changes]GGGGSGGGGSREGPELSPDDPAGLLDLRQGMFAQLVAQNVLLIDGPLSWYSDPGLAGVSLTGGLSYKEDTKELVVAKAGVYYVFFQLELRRVVAGEGSGSVSLALHLQPLRSAAGAAALALTVDLPPASSEARNSAFGFQGRLLHLSAGQRLGVHLHTEARARHAWQLTQGATVLGLFRVTPEIPAGLPSPRSE
light: DIVLTQSPASLAVSLGQRATMSCRAGESVDIFGVGFLHWYQQKPGQPPKLLIYRASNLESGIPVRFSGTGSRTDFTLIIDPVEADDVATYYCQQTNEDPYTFGGGTKLEIKRTVAAPSVFIFPPSDEQLKSGTASVVCLLNNFYPREAKVQWKVDNALQSGNSQESVTEQDSKDSTYSLSSTLTLSKADYEKHKVYACEVTHQGLSSPVTKSFNRGEC
